Source: PubChem BioAssay AID686971 (National Center for Advancing Translational Sciences (NCATS), 2013)
The whole screen tested about 360,000 compounds, of which about 7,500 (2.1%) were called active. Inconclusive means that the source gave no clear call. Such entries were picked first, then a sample of the others. The call rests on the fitted dose curve; in most records, active means well fitted cell-killing curve with a large enough effect; inconclusive means small, poorly fitted or top-dose-only effect, or effect the other way, or another doubt; inactive means no such curve, though single readings can be large or run the other way. No potency is given beside an inconclusive call; the fits are too rough.

assay: qHTS for induction of synthetic lethality in tumor cells producing 2HG: qHTS for the HT-1080-IDH1KD cell line; settings: HT-1080 IDH1 knockdown viability, ATP luminescence, 48 h; activity, negative = toxicity: at 46.1 µM (top of the series) unless noted;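 on activity, negative = toxicity: 0% = DMSO wells and -100% = cell-free medium wells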
Outline: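 In this qHTS, HT-1080 cells depleted of IDH1 are exposed for 48 h at 37 °C to compound titrations. Toxicity is scored from CellTiter-Glo luminescence, with DMSO as full viability and medium alone as none.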
Potency means the concentration at half of the fitted maximal effect; tags describe the fitted curve by direction and shape.

Q: For `CCOc1cc(CNCCN2CCOCC2)ccc1OCc1ccccc1Cl`, which Potency is on record?
A: The Potency was inconclusive [cytotoxic, single point].

Q: For `Nc1ccc2nc(-c3ccc(Cl)cc3)[nH]c2c1`, which Potency is on record?
A: The Potency was active: 20.6 µM.

Q: With `COc1ccc(NC(=O)N2CCCc3cc(C)ccc32)c(OC)c1` as the molecule, how does the “activity, negative = toxicity” value read?
A: The value was inactive: -10.3%.

Q: With `CCn1c2ccccc2c2nc3cc(C(=O)O)ccc3nc21` as the molecule, how does the Potency read?
A: Its Potency is inconclusive [cytotoxic, single point].

Q: Which “activity, negative = toxicity” value does the source give for `Cc1ccc(C)c(C(=O)COC(=O)c2ccc(C)c(S(=O)(=O)N3CCOCC3)c2)c1` here?
A: Its value is inactive: -1.52%.

Q: For `CCc1ccc(S(=O)(=O)Nc2cc3c(cc2C)n(C)c(=O)n3C)cc1`, which Potency is on record?
A: The Potency was active: 14.6 µM.

Q: With `CC(C)(C)c1cc(CNC2CS(=O)(=O)C[C@@H]2O)cc(C(C)(C)C)c1O` (stereo not given in full) as the molecule, how does the “activity, negative = toxicity” value read?
A: The value was inactive: 2.05%.

Q: With `N#C/C(=C(/O)c1ccc2c(c1)OCO2)c1nc2cc(C(F)(F)F)ccc2s1` as the molecule, how does the Potency read?
A: The Potency was inconclusive [cytotoxic, partial curve, poor fit].

Q: Which Potency does the source give for `Cn1cc(C(=O)c2ccc(Cl)cc2Cl)cc1C=O` here?
A: The Potency was inconclusive [cytotoxic, single point].

Q: With `CCNC(=O)C1(C)CCN(C(=O)c2cccc(C(F)(F)F)c2)C1` (stereo not given) as the molecule, how does the Potency read?
A: The Potency was inconclusive [rising, single point].

Q: Which Potency does the source give for `S=C(Nc1ccc(Br)cc1Cl)NC1CCN(Cc2ccccc2)CC1` here?
A: The Potency was active: 20.6 µM.

Q: For `Cc1nc2ncnn2c(N2CCN(c3cccc(C(F)(F)F)c3)CC2)c1C`, which Potency is on record?
A: Its Potency is inconclusive [cytotoxic, single point].

Q: For `S=c1[nH]nc(COc2ccccc2)n1/N=C/C(Cl)=C/c1ccccc1`, which Potency is on record?
A: Its Potency is inconclusive [cytotoxic, single point].

Q: Which Potency does the source give for `CCOC(=O)Cc1c(C)nc2c(-c3ccc(OC)cc3)c(C)nn2c1C` here?
A: Its Potency is inconclusive [cytotoxic, single point].

Q: For `CN(C)c1nc(NCc2ccccc2)nc(SCC(=O)Nc2ccccc2Cl)n1`, which “activity, negative = toxicity” value is on record?
A: The value was inactive: -8.62%.

Q: Which Potency does the source give for `CC(NC(=O)c1cccc(Cn2cc([N+](=O)[O-])cn2)c1)c1ccc(C(C)(C)C)cc1` (stereo not given) here?
A: The Potency was inconclusive [cytotoxic, single point].

Q: With `O=[N+]([O-])c1cccc2ccc(/C=C/c3ccc(C(F)(F)F)cc3)nc12` as the molecule, how does the “activity, negative = toxicity” value read?
A: Its value is inactive: -5.47%.

Q: For `O=C(Oc1c(CN2CCOCC2)cc(Cl)c2cccnc12)c1ccccc1Cl`, which Potency is on record?
A: The Potency was active: 6.51 µM.

Q: With `CCc1ccc(CCC(=O)Nc2ccccc2C(=O)O)o1` as the molecule, how does the Potency read?
A: The Potency was inconclusive [cytotoxic, single point].

Q: Which Potency does the source give for `COc1ccc(OC)c(NS(=O)(=O)c2ccc(Cl)s2)c1` here?
A: Its Potency is inconclusive [cytotoxic, single point].
